# Measurements: the supplement of paper PMC3334620
# In all, about 33,000 sequences were measured (“E-score (-0.5 to 0.5)”: median about -0.043, highest 2% from about 0.37 on). The list shows a part of the results.
# Target: T1, Upc2 (UniProt Q12151)
# T1 sequence: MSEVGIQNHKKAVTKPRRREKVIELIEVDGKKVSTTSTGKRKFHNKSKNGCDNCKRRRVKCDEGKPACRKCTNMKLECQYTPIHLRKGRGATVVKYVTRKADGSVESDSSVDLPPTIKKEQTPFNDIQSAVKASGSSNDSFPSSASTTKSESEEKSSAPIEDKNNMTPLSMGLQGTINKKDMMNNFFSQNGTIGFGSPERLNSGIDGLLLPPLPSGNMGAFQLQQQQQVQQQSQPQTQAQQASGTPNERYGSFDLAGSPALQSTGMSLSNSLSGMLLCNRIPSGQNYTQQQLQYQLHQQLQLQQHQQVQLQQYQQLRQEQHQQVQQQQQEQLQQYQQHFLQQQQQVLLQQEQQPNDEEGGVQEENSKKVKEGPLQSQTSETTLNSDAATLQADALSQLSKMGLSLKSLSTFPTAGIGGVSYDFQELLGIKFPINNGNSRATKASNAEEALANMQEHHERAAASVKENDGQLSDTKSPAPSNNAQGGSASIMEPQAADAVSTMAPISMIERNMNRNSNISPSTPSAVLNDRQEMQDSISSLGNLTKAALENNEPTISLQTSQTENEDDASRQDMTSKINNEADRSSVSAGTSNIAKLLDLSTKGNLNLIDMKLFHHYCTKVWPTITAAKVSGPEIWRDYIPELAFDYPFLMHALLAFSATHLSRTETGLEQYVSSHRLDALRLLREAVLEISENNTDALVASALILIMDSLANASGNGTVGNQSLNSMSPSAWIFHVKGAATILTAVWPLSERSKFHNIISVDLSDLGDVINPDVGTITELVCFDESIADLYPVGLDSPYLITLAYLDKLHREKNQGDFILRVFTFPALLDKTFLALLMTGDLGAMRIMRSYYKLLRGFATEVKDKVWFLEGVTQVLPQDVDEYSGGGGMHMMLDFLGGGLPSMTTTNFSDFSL
# Test: PBM E-score (8-mer binding enrichment) (E-score (-0.5 to 0.5)); higher = stronger / more preferred TF binding; most listed sequences are background and not binding sites
# Settings: protein concentration: 200 nM; construct: GST-full length
# In short: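 For each ungapped eight-base word taken together with its reverse complement, the Universal PBM Analysis Suite assigned an E-score. Binding data came from GST-tagged yeast transcription factors, applied at about 100-200 nM, on universal all-10-mer Agilent arrays made double-stranded by primer extension. Fluorescent anti-GST marked bound protein, and scans were normalised with masliner.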
row,Sequence,PBM E-score
1,CTTTGTAA,0.029
2,AACGTACC,0.256
3,ACCATTCC,-0.107
4,ACGGACAG,0.103
5,AGAGTATC,0.173
6,GGCTTACA,-0.162
7,TACGTATA,0.423
8,AAGGGACA,-0.223
9,GGATGGCA,0.0444
10,GGGGCGAA,-0.258
11,AACACAAC,0.109
12,AAAGCAAT,-0.0118
13,TGTCCTAA,0.0981
14,AAATACCA,-0.0252
15,GAAGCTAC,0.0814
16,CCCACACG,0.0149
17,AGGTTTTG,-0.0329
18,CACCCCCG,-0.186
19,ACCGGTGA,-0.0143
20,GCCCTCCA,-0.226
21,ATCTACCC,-0.0258
22,CCATTACG,0.0641
23,ACAACTCT,-0.0655
24,ACAACTGA,-0.00564
25,ACTGTGCG,0.134

row,Sequence,PBM E-score
1,ATTGTGTG,-0.262
2,ACCTCCGA,-0.0603
3,ATCCAACA,-0.0987
4,CCTGTATC,-0.0552
5,GCCGAGTA,-0.00493
6,ATGTTGCG,0.0786
7,CATACTAG,-0.0879
8,AGATCAAC,0.0219
9,AGGTACCA,-0.0227
10,ATCTAAGC,0.0247
11,ACGAGGCC,0.381
12,AACGGGGG,0.148
13,ATGGTGTG,-0.0803
14,GCTTTCAC,-0.107
15,ACTTCCAC,-0.208
16,AAGGGAAA,-0.185
17,CCGAAGCG,0.0707
18,GGTGCAAA,-0.14
19,ATACCAGA,-0.0271
20,ACCAGACG,-0.0469
21,GGGCCGGA,-0.172
22,ACGTACGA,0.431
23,ATGGCGAG,-0.0492
24,CAGCCGTA,0.299
25,AGTATGGA,-0.128

row,Sequence,PBM E-score
1,CACGATGA,0.169
2,AGCCCGTG,-0.0733
3,AATCAGGC,-0.152
4,GTTAAAGA,0.171
5,ACCCTCCT,-0.0647
6,GATTGAGC,0.0285
7,CAGTAGCA,0.0028
8,CTAGCTGA,-0.0756
9,AGTTATCC,-0.015
10,TGCGGGAA,-0.00487
11,GCTCAACC,-0.0491
12,GAAATTGA,-0.0434
13,AGTAAGAA,0.00183
14,AAGAGAAA,-0.185
15,ACGTGTCC,-0.0289
16,CCAAACAC,-0.0449
17,GCGTGGGA,0.0201
18,AACCGCTG,0.00261
19,AATACCAG,0.00549
20,GCATTCTA,-0.0821
21,CGAAAGGA,0.113
22,AAAGCACG,0.122
23,CACCCCCA,-0.208
24,AAGACCTG,-0.16
25,AAAGCGAG,0.217

row,Sequence,PBM E-score
1,ATTGAGTC,-0.155
2,GTCTACGA,0.346
3,AGTTGTCC,0.0243
4,CGGAACGA,0.468
5,GTCTAACA,-0.263
6,AAATTGCA,-0.0477
7,AAACCGCA,-0.176
8,GACCCTGA,-0.141
9,CATCTATC,-0.0942
10,TCGGGACA,-0.103
11,AGTAGGTG,-0.361
12,CACGTTCA,0.092
13,CCCGGTTC,-0.0294
14,AGGACAAA,0.113
15,GCGCGATA,0.0909
16,TGCAGAAA,0.222
17,GATTCAGA,-0.136
18,CCCTACAG,-0.186
19,ATCTTCAC,-0.107
20,ACGCTTCA,-0.0325
21,AAACCCGT,0.103
22,CCGGCTTA,-0.245
23,ACGGTGTC,0.191
24,GACCGCTC,-0.118
25,CTCTCCAG,-0.203

row,Sequence,PBM E-score
1,ACATATGT,-0.184
2,AGCTCCCC,-0.178
3,CGATCTGA,-0.103
4,ACAGCGGC,-0.0328
5,ACCTCCGG,-0.243
6,AGAATCCA,-0.217
7,AAGATATT,-0.113
8,GTATGTTA,0.221
9,CGACTCGC,0.248
10,GATTAGTA,0.0619
11,GAGAATTA,-0.143
12,ATAACGAC,0.159
13,ACCAGACC,0.125
14,CCAACGAC,0.0191
15,GATTAATA,0.0404
16,GGGGAATA,-0.254
17,TAAAACAA,0.134
18,CGATAAAC,0.305
19,GTCTCAGA,-0.25
20,AGGCTACC,-0.191
21,ATGTTTTG,0.00718
22,CAGTACGG,0.257
23,GCGTCAGC,-0.0319
24,GCTTGCCC,-0.179
25,CGCTATAC,0.392

row,Sequence,PBM E-score
1,GTACCGTA,0.343
2,GATTGGGC,-0.0525
3,GGAAAACA,-0.0688
4,CTCTATCA,-0.26
5,CAAACGTA,0.259
6,ACTGACCT,-0.058
7,CGTTACAG,0.201
8,GTTACACA,-0.0801
9,AGGGTTCA,-0.0645
10,CTATTTTA,0.0531
11,ATCGTTAA,0.435
12,CCAACAAG,-0.23
13,AGTGGTCC,-0.123
14,CCTGGTAC,0.192
15,GTAATGTA,0.0349
16,AAGGCTAG,-0.0862
17,CGTTGGCC,-0.187
18,ACCCTGTA,-0.0196
19,ACTGTACT,0.0214
20,ATAATAGG,-0.0958
21,ATCATGTC,-0.116
22,CTCTATTA,-0.0451
23,CAGAGGGG,-0.281
24,GAGTGAGC,-0.106
25,GGGAACAA,0.0652

row,Sequence,PBM E-score
1,CGAGGGAA,0.135
2,CTATTGGC,-0.183
3,AGTCCGCG,-0.0966
4,AAGGTCAG,-0.239
5,CCCACGAC,-0.225
6,TCGGGGAA,0.014
7,CGGGTTAG,0.0259
8,AATTGAGC,-0.0691
9,CCAACTCC,-0.0247
10,ACGAAGAT,0.349
11,ACACTGTC,-0.101
12,AAGCACTC,-0.164
13,GCGGAGCA,-0.131
14,AATTTCAC,-0.136
15,ACTCGTCT,0.167
16,ACATCTTA,-0.0462
17,CGCATAGC,0.265
18,GGACATCC,-0.155
19,CCTTGCGC,-0.219
20,CCTACACG,0.0945
21,ACAGCAGA,0.0794
22,CCAAAGGG,-0.307
